# Laboratory results reported in PMC4336329 (PLoS ONE, 2015).
# Hit rate of the full screen: of about 310,000 compounds, about 2,200 (0.71%) showed an effect of 50% or more. The effect is printed as a negative number. This is one part of the list.
# Target: human ether-à-go-go-related gene (hERG) potassium channel (human, UniProt Q12809)
# Assay: primary screen, population patch clamp on CHO cells stably expressing hERG
# human ether-à-go-go-related gene (hERG) potassium channel, sequence (Q12809 whole entry, looked up): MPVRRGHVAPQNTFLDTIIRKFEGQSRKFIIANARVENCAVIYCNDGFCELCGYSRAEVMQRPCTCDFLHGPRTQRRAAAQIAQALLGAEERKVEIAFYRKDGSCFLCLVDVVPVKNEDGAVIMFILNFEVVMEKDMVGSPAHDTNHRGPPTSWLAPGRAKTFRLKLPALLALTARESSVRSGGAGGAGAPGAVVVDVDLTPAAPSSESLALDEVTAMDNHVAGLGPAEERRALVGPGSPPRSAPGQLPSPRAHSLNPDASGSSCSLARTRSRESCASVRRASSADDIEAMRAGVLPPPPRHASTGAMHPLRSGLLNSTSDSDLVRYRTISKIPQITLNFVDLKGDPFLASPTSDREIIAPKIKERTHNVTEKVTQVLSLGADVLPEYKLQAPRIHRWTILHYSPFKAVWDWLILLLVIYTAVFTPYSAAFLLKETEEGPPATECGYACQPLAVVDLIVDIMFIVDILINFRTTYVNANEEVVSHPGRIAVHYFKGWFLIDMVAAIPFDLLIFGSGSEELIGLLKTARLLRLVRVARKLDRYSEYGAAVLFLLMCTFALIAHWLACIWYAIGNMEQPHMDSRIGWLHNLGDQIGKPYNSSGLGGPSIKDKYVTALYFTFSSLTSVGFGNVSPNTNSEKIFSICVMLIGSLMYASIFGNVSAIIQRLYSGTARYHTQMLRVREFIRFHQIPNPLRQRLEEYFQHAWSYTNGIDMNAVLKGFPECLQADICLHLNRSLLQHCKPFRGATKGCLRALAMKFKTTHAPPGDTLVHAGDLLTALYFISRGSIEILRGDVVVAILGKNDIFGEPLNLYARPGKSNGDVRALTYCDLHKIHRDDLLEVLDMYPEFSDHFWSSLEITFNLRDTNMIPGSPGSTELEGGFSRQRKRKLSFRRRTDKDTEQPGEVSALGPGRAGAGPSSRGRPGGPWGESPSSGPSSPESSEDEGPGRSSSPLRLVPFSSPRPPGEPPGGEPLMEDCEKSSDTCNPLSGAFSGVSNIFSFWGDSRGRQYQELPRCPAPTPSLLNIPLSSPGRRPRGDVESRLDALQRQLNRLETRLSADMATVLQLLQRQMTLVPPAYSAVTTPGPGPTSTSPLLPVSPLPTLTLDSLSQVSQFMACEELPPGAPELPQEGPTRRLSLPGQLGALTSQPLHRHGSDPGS
row,SMILES,"hERG current change (%, negative = inhibition) at 1uM [%]"
1,O=C1N(c2ccc(Cl)c(Cl)c2)CN(Cc2ccccc2)CN1n1cnnc1,6.92
2,O=C(Cc1c(O)c2ccccc2[nH]c1=O)OC1CCCCC1,20.3
3,O=c1c2ccccc2nc(/C=C/c2ccc(O)cc2)n1-c1ccc(O)cc1,5.58
4,CCNC(=O)NC(=O)C(C)OC(=O)c1oc2ccccc2c1CSC1CCCCC1 (stereo not drawn),-0.593
5,CCN1CCCC1CNC(=O)c1cn(CC)c2ccc(S(=O)(=O)N3CCCCCC3)cc2c1=O (stereo not drawn),-36.6
6,O=C(NCC1CCN(C(=O)c2c(F)c(F)c(F)c(F)c2F)CC1)c1c(F)c(F)c(F)c(F)c1F,4.05
7,Cc1cccc(NCc2ccccc2OCc2ccccc2F)c1,11.2
8,COc1cc(Br)ccc1C1CC(=O)C(C)C(c2ccc(Br)cc2OC)N1 (stereo not drawn),14.1
9,O=c1[nH]c2ccccc2n2c(-c3ccccc3)nnc12,8.99
10,CCOc1ccc(CNC(=O)C2CCN(S(=O)(=O)c3ccc4c(c3)CCCC(=O)N4)CC2)cc1,11
11,Cl.O=S(=O)(c1ccc2ccccc2c1)N1CCN(CCO)CC1,20.7
12,COc1ccc(S(=O)(=O)Nc2ccc(C(F)(F)F)cc2)cc1OC,10
13,COc1ccccc1OCc1ccc(C(=O)N2CCN3CCCC3C2)cc1 (stereo not drawn),6.51
14,Cl.c1ccc(-n2ncc3c(NCCN4CCCCC4)ncnc32)cc1,5
15,CC1CCCCC1NC(=O)CCNS(=O)(=O)c1cc(Br)cnc1N (stereo not drawn),15.2
16,Cc1cc(CNCc2c(C(=O)N3CCCCCCC3)nc3ccc(Cl)cn23)nn1C,9.15
17,c1ccc(Cn2nnnc2C(c2ccccn2)N2CCOCC2)cc1 (stereo not drawn),16
18,CSCC[C@H](NC(=O)OC(C)(C)C)C(=O)N/N=C/c1cccc2cccnc12,4.99
19,CCOC(=O)c1c(NS(=O)(=O)c2cccc(OC)c2)sc2c1CCC2,-9.79
20,O=C1CCCN1c1ccc(C(=O)N(Cc2nnc(-c3ccccc3Cl)o2)C2CC2)cc1,12
21,CC(=O)c1ccccc1NC(=O)Cn1c(=O)cnc2ccccc21,12.5
22,COc1ccc(N2C(=O)C3CCCN3C2c2ccc(C)o2)cc1 (stereo not drawn),8.61
23,Cn1c(O)c(/C=C2\C=Nc3ccc(Br)cc32)c(=O)n(C)c1=O,8.69

row,SMILES,"hERG current change (%, negative = inhibition) at 1uM [%]"
1,CC(C)(C)OC(=O)NCCCC[C@H](NC(=O)c1[nH]cnc1C(=O)Nc1ccc(Cl)cc1)C(=O)OC(C)(C)C,15.5
2,CCSc1nnc(NC(=O)CSC2=NCCS2)s1,8.65
3,O=C(Nc1nnc(-c2ccccc2F)s1)C1CCN(S(=O)(=O)c2ccc(Cl)cc2)CC1,15.3
4,COc1cccc(CN2CCC(Oc3ccc(C(=O)N4CCCCC4)cc3)CC2)c1,-0.592
5,COc1ccccc1NC(=S)N(Cc1ccco1)Cc1cc2ccc(C)c(C)c2[nH]c1=O,-4.79
6,CCCCSc1nnc2c(n1)[nH]c1ccccc12,7.72
7,O=C(c1ccc(F)cc1)N(C(=O)c1ccc(F)cc1)c1ncccn1,6.64
8,O=C(CN1CCCCC1)c1c[nH]c2ccccc12,13.7
9,CCN(CC)S(=O)(=O)c1cc(NC(=O)COC(=O)CCC(=O)c2cccs2)ccc1C,14.2
10,O/N=C/Cc1[nH]c2ccccc2c1-c1ccccc1,8.87
11,CCc1ccccc1NC(=O)CN1CCN(CC(=O)Nc2ccc(-c3ccccc3)cc2)CC1,-7.45
12,Cc1ccc2nc(-c3ccncc3)c(Nc3ccccc3)n2c1,11.2
13,COCc1nc2sc3c(c2c(=O)[nH]1)CCCC3,17.5
14,Cn1nccc1C(=O)Nc1ccc(Cl)cc1,4.84
15,CN(CCO)C(=O)C(c1ccccc1)c1ccccc1,11.8
16,O=C(O)c1ccc(/C=C2\SC(=S)N(NC(=O)c3ccccc3)C2=O)cc1,10.6
17,COc1ccc(NS(=O)(=O)c2cc(NC(=O)c3cnccn3)ccc2N2CCCC2)cc1,0.752
18,COc1ccccc1CN=c1c([N+](=O)[O-])nn(-c2ccc3c(c2)OCCO3)n1O,4.68
19,N#CCc1nn(-c2ccccc2)c(N)c1C#N,3.38
20,CCOC(=O)c1sc(-c2ccc(C(F)(F)F)cc2)nc1O,13
21,NS(=O)(=O)c1ccc(CCNC(=O)CN2C(=O)COc3ccc(S(=O)(=O)N4CCCC4)cc32)cc1,12.2
22,COc1ccc(-c2nc3c4ccccc4ccn3c2C=O)cc1,22.2
